In experiment [1] the target is T1, recombinant Trf4-FLAG (S. cerevisiae), P53632.
T1 chain: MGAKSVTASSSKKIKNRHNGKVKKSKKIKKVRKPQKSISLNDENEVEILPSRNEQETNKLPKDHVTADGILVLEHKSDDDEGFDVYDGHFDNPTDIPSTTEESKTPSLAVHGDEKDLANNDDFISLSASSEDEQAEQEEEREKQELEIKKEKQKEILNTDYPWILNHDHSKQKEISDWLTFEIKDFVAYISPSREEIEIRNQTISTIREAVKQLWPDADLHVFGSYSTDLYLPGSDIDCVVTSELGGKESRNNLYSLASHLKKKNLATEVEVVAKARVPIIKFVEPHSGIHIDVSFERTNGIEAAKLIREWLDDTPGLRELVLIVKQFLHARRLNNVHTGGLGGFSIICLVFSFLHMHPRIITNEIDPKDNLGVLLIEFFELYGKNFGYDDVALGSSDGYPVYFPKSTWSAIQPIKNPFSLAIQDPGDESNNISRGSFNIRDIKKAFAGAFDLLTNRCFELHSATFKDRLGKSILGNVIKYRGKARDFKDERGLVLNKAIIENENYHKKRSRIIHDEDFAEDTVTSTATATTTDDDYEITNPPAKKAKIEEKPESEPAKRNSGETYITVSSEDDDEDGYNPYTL
The experiment is described as follows: pull-down; recombinant Trf4-FLAG as bait, E. coli extracts expressing the recombinant partners, in the presence of RNase; immunoblot with anti-His or anti-FLAG. The conditions noted are these: remark: other sources report otherwise. (In general: A western blot detects proteins with antibodies after separation by electrophoresis.)

In experiment [2] the target is T2, Nrd1p-TAP (S. cerevisiae) (UniProt P53617).
T2 sequence: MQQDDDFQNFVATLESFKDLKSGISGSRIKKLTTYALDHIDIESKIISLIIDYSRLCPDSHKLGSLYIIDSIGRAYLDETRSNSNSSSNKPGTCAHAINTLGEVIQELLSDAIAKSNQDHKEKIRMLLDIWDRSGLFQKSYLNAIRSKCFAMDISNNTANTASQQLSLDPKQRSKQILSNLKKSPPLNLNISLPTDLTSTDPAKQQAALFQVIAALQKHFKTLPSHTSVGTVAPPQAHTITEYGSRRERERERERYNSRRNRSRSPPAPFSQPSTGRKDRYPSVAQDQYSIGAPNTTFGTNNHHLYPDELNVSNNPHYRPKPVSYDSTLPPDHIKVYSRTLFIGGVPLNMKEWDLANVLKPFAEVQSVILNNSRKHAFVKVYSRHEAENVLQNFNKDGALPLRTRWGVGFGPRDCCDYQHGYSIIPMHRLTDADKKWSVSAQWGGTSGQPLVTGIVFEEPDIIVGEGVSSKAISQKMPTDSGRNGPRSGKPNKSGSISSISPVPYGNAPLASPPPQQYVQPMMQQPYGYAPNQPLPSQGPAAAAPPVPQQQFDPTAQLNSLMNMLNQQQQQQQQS
The experiment is described as follows: co-IP; Nrd1p-TAP or Nrd1ΔCIDp-TAP immunopurified from yeast extracts treated with RNase; eluted by TEV cleavage; western blot.

For experiment [3], the target named is T3, recombinant Trf4-FLAG (S. cerevisiae) (UniProt P53632).
T3 sequence: T1 chain
The experiment is described as follows: pull-down; recombinant Trf4-FLAG as bait, E. coli extracts expressing the recombinant partners, in the presence of RNase; immunoblot with anti-His or anti-FLAG.

Numbering of substitutions follows the chain as printed. Names and notes keep the numbering of the source. Results are given in words; binding and its absence hold for the method and conditions named. In cells and extracts the contact can be indirect. Some results given as binding are weak or reduced against the parent protein; the word gives no strength. For some assays here: Where a sequence is shown, tags or fusion partners need not be part of it.

B1: recombinant Rrp6-Halo, Q12149 1-733 (protein)
chain: MTSENPDVLLSRVINVVRAASSLASQDVDFYKNLDRGFSKDLKSKADKLADMANEIILSIDEHHESFELKEEDISDLWNNFGNIMDNLLEMSDHSLDKLNCAINSKSRGSDLQYLGEFSGKNFSPTKRVEKPQLKFKSPIDNSESHPFIPLLKEKPNALKPLSESLRLVDDDENNPSHYPHPYEYEIDHQEYSPEILQIREEIPSKSWDDSVPIWVDTSTELESMLEDLKNTKEIAVDLEHHDYRSYYGIVCLMQISTRERDYLVDTLKLRENLHILNEVFTNPSIVKVFHGAFMDIIWLQRDLGLYVVGLFDTYHASKAIGLPRHSLAYLLENFANFKTSKKYQLADWRIRPLSKPMTAYARADTHFLLNIYDQLRNKLIESNKLAGVLYESRNVAKRRFEYSKYRPLTPSSEVYSPIEKESPWKILMYQYNIPPEREVLVRELYQWRDLIARRDDESPRFVMPNQLLAALVAYTPTDVIGVVSLTNGVTEHVRQNAKLLANLIRDALRNIKNTNEEATPIPSSETKADGILLETISVPQIRDVMERFSVLCNSNISKSRAKPVTNSSILLGKILPREEHDIAYSKDGLPNKVKTEDIRIRAQNFKSALANLEDIIFEIEKPLVVPVKLEEIKTVDPASAPNHSPEIDNLDDLVVLKKKNIQKKQPAKEKGVTEKDAVDYSKIPNILSNKPGQNNRQQKKRRFDPSSSDSNGPRAAKKRRPAAKGKNLSFKR
For the molecule B1, in experiment [1], the binding result is listed as “binds”.

B2: Dis3p (protein, UniProt Q08162 1-1001)
chain: MSVPAIAPRRKRLADGLSVTQKVFVRSRNGGATKIVREHYLRSDIPCLSRSCTKCPQIVVPDAQNELPKFILSDSPLELSAPIGKHYVVLDTNVVLQAIDLLENPNCFFDVIVPQIVLDEVRNKSYPVYTRLRTLCRDSDDHKRFIVFHNEFSEHTFVERLPNETINDRNDRAIRKTCQWYSEHLKPYDINVVLVTNDRLNREAATKEVESNIITKSLVQYIELLPNADDIRDSIPQMDSFDKDLERDTFSDFTFPEYYSTARVMGGLKNGVLYQGNIQISEYNFLEGSVSLPRFSKPVLIVGQKNLNRAFNGDQVIVELLPQSEWKAPSSIVLDSEHFDVNDNPDIEAGDDDDNNESSSNTTVISDKQRRLLAKDAMIAQRSKKIQPTAKVVYIQRRSWRQYVGQLAPSSVDPQSSSTQNVFVILMDKCLPKVRIRTRRAAELLDKRIVISIDSWPTTHKYPLGHFVRDLGTIESAQAETEALLLEHDVEYRPFSKKVLECLPAEGHDWKAPTKLDDPEAVSKDPLLTKRKDLRDKLICSIDPPGCVDIDDALHAKKLPNGNWEVGVHIADVTHFVKPGTALDAEGAARGTSVYLVDKRIDMLPMLLGTDLCSLKPYVDRFAFSVIWELDDSANIVNVNFMKSVIRSREAFSYEQAQLRIDDKTQNDELTMGMRALLKLSVKLKQKRLEAGALNLASPEVKVHMDSETSDPNEVEIKKLLATNSLVEEFMLLANISVARKIYDAFPQTAMLRRHAAPPSTNFEILNEMLNTRKNMSISLESSKALADSLDRCVDPEDPYFNTLVRIMSTRCMMAAQYFYSGAYSYPDFRHYGLAVDIYTHFTSPIRRYCDVVAHRQLAGAIGYEPLSLTHRDKNKMDMICRNINRKHRNAQFAGRASIEYYVGQVMRNNESTETGYVIKVFNNGIVVLVPKFGVEGLIRLDNLTEDPNSAAFDEVEYKLTFVPTNSDKPRDVYVFDKVEVQVRSVMDPITSKRKAELLLK
For the molecule B2, in experiment [2], the binding result is on record as “binds weakly”.

B3: Trf4p lacking the NIM (trf4ΔNIM) (domain or fragment, UniProt P53632 1-573)
chain: MGAKSVTASSSKKIKNRHNGKVKKSKKIKKVRKPQKSISLNDENEVEILPSRNEQETNKLPKDHVTADGILVLEHKSDDDEGFDVYDGHFDNPTDIPSTTEESKTPSLAVHGDEKDLANNDDFISLSASSEDEQAEQEEEREKQELEIKKEKQKEILNTDYPWILNHDHSKQKEISDWLTFEIKDFVAYISPSREEIEIRNQTISTIREAVKQLWPDADLHVFGSYSTDLYLPGSDIDCVVTSELGGKESRNNLYSLASHLKKKNLATEVEVVAKARVPIIKFVEPHSGIHIDVSFERTNGIEAAKLIREWLDDTPGLRELVLIVKQFLHARRLNNVHTGGLGGFSIICLVFSFLHMHPRIITNEIDPKDNLGVLLIEFFELYGKNFGYDDVALGSSDGYPVYFPKSTWSAIQPIKNPFSLAIQDPGDESNNISRGSFNIRDIKKAFAGAFDLLTNRCFELHSATFKDRLGKSILGNVIKYRGKARDFKDERGLVLNKAIIENENYHKKRSRIIHDEDFAEDTVTSTATATTTDDDYEITNPPAKKAKIEEKPESEPAKRNSGETYITVSSED
Turning to B3, in experiment [2], the binding result is given as “no binding”.

B4: recombinant His-tagged Nrd1 (protein, UniProt P53617 1-575)
chain: T2 sequence
With B4, the binding result in experiment [3] is recorded as “binds”.

B5: Nab3p (protein, UniProt P38996 1-802)
chain: MSDENHNSDVQDIPSPELSVDSNSNENELMNNSSADDGIEFDAPEEEREAEREEENEEQHELEDVNDEEEEDKEEKGEENGEVINTEEEEEEEHQQKGGNDDDDDDNEEEEEEEEDDDDDDDDDDDDEEEEEEEEEEGNDNSSVGSDSAAEDGEDEEDKKDKTKDKEVELRRETLEKEQKDVDEAIKKITREENDNTHFPTNMENVNYDLLQKQVKYIMDSNMLNLPQFQHLPQEEKMSAILAMLNSNSDTALSVPPHDSTISTTASASATSGARSNDQRKPPLSDAQRRMRFPRADLSKPITEEEHDRYAAYLHGENKITEMHNIPPKSRLFIGNLPLKNVSKEDLFRIFSPYGHIMQINIKNAFGFIQFDNPQSVRDAIECESQEMNFGKKLILEVSSSNARPQFDHGDHGTNSSSTFISSAKRPFQTESGDMYNDDNGAGYKKSRRHTVSCNIFVKRTADRTYAIEVFNRFRDGTGLETDMIFLKPRMELGKLINDAAYNGVWGVVLVNKTHNVDVQTFYKGSQGETKFDEYISISADDAVAIFNNIKNNRNNSRPTDYRAMSHQQNIYGAPPLPVPNGPAVGPPPQTNYYQGYSMPPPQQQQQQPYGNYGMPPPSHDQGYGSQPPIPMNQSYGRYQTSIPPPPPQQQIPQGYGRYQAGPPPQPPSQTPMDQQQLLSAIQNLPPNVVSNLLSMAQQQQQQPHAQQQLVGLIQSMQGQAPQQQQQQLGGYSSMNSSSPPPMSTNYNGQNISAKPSAPPMSHQPPPPQQQQQQQQQQQQQQQQPAGNNVQSLLDSLAKLQK
On to B5, for which the binding entry in experiment [2] was “binds”.

B6: recombinant CID-His6 (domain or fragment, UniProt P53617 1-153)
chain: MQQDDDFQNFVATLESFKDLKSGISGSRIKKLTTYALDHIDIESKIISLIIDYSRLCPDSHKLGSLYIIDSIGRAYLDETRSNSNSSSNKPGTCAHAINTLGEVIQELLSDAIAKSNQDHKEKIRMLLDIWDRSGLFQKSYLNAIRSKCFAMD
Take B6: the binding entry in experiment [3] is given as “binds”.

B7: rCID-S25D-His6 (domain or fragment, UniProt P53617 1-153)
chain: B6 chain with S25D
Turning to B7, the binding result in experiment [3] is reported as “no binding”.

B8: CID-R28D-His6 (domain or fragment, UniProt P53617 1-153)
chain: B6 chain with R28D
With B8, the binding entry in experiment [3] was “no binding”.

Values taken from article PMC4186968, “Molecular Basis for Coordinating Transcription Termination with Noncoding RNA Degradation” (Molecular Cell, 2014).
